Reference: the supplement of paper PMC11417369
The list shows a part of the results.

system: PF3D7_0420300 AP2 domain 1 (GST-tagged); assay: gcPBM binding intensity (ln(normalized median fluorescence intensity)); higher = stronger DNA binding
Procedure, shortened: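 The highest Masliner-normalised natural-log median intensity across replicate spots of either probe orientation is reported as binding intensity. GST-tagged P. falciparum DNA-binding domains expressed in E. coli were applied for 1 h to an Agilent 4 × 180k array of primer-extended double-stranded 36-bp intergenic genomic probes plus negative controls, and bound protein was detected with Alexa488 anti-GST antibody and scanned at 488 nm.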

Q: Which “gcPBM binding intensity (ln)” value does the source give for “ATATATATTATATGCACACTAATAAGACTATTTAAA [CACACA_site3554]” here?
A: 9.23

Q: “GTATATGTACTATACGCACACACACCCACATATATA [CACACA_site9062]” was tested. Which “gcPBM binding intensity (ln)” value did it give?
A: 9.98

Q: With “TTGAGTTGTATAAAAAGTACAAGGTTTTAACTAAAT [XGTACX_site1447]” as the sequence, how does the “gcPBM binding intensity (ln)” value read?
A: 9.13

Q: How did the “gcPBM binding intensity (ln)” value turn out when “TTATAATATTCATAAGGTACAGTTTATATATGTTAT [XGTACX_site8442]” was run?
A: 9.3

Q: Which “gcPBM binding intensity (ln)” value does the source give for “AATAATCATGATCAAAGTACGTATGATTAAAAAAAA [XGTACX_site4916]” here?
A: 9.38

Q: Which “gcPBM binding intensity (ln)” value does the source give for “TATATGTAAATGGACACACACATATATATATATATA [CACACA_site3659]” here?
A: 9.4

Q: How did the “gcPBM binding intensity (ln)” value turn out when “TATGACCTTAGTAATTGTACACAAACATATTAATAT [XGTACX_site3340]” was run?
A: 9.27

Q: With “GAGTATATGATATATATATATATATAAAAAAAAAAA [GTGCAC_negctrl_site99]” as the sequence, how does the “gcPBM binding intensity (ln)” value read?
A: 9.21

Q: Which “gcPBM binding intensity (ln)” value does the source give for “ACATATATATAATATATATATCATCATATTTTCTTA [CACACA_negctrl_site853]” here?
A: 9.22

Q: How did the “gcPBM binding intensity (ln)” value turn out when “ATATGTGTTATTTATACATGCAGAAGAATATCTATT [TGCATGCA_site828]” was run?
A: 9.31

Q: With “TGTGTGTGTATATGTGTGCACATATAAAATAGAAGA [GTGCAC_site9714]” as the sequence, how does the “gcPBM binding intensity (ln)” value read?
A: 10.2

Q: “CATACATTTAAAAAGTGTACGTATATGAAAAAAGGA [XGTACX_site6512]” was tested. Which “gcPBM binding intensity (ln)” value did it give?
A: 9.34

Q: For “ACCTTTGTAGTTGGTCCACACACATATATGGAAGAA [CACACA_site8351]”, which “gcPBM binding intensity (ln)” value is on record?
A: 9.52

Q: How did the “gcPBM binding intensity (ln)” value turn out when “CTCAATATTATTACTACACACAAATTAAAATTTTCC [CACACA_site4203]” was run?
A: 9.45

Q: “AGAGAATAAATATAAAGTACATATATAAATATATAT [XGTACX_site5055]” was tested. Which “gcPBM binding intensity (ln)” value did it give?
A: 9.33

Q: Which “gcPBM binding intensity (ln)” value does the source give for “ACATATACAAAACACACACACAACGTTTTAATAAAT [CACACA_site1979]” here?
A: 10.1

Q: Which “gcPBM binding intensity (ln)” value does the source give for “ATGTTATAAATCTTAATATATATATGCAAAAGAGAA [XGTACX_negctrl_site521]” here?
A: 9.31

Q: For “GTATATAAAAATTCATGTACATATTATTATTTTTAA [XGTACX_site658]”, which “gcPBM binding intensity (ln)” value is on record?
A: 9.13

Q: Which “gcPBM binding intensity (ln)” value does the source give for “TTGTACATCTTTTGCACACGTAATGTTATTATAATA [CACACA_site1258]” here?
A: 9.49

Q: With “TTATAACTTTTGAGCACACACAAGCATATAAATATA [CACACA_site6933]” as the sequence, how does the “gcPBM binding intensity (ln)” value read?
A: 9.47

Q: How did the “gcPBM binding intensity (ln)” value turn out when “AAATACTGTAAAAAAGCATGCCACTAATAATAATTA [TGCATGCA_site759]” was run?
A: 9.38

Q: TCATTTTTTTGTTTGGTGCGACTTGAAAATTTGATT was tested. Which “gcPBM binding intensity (ln)” value did it give?
A: 9.17

Q: With “ATAAAGATTAATTCAAGTACACATCAAATACTACAA [XGTACX_site8794]” as the sequence, how does the “gcPBM binding intensity (ln)” value read?
A: 9.36

Q: How did the “gcPBM binding intensity (ln)” value turn out when “TATATATATTTATGTACACACATCAATCATATTAAC [CACACA_site5127]” was run?
A: 9.5

Q: How did the “gcPBM binding intensity (ln)” value turn out when “CATATACATATATGTAGTACGTGTTCTTCTATATGA [XGTACX_site8344]” was run?
A: 9.37

Q: With “TACATATACAGACACACACACACACCCCCACAAAAA [CACACA_site495]” as the sequence, how does the “gcPBM binding intensity (ln)” value read?
A: 10.3

Q: With “ATTAATATGAAACGATTATAAGAAAGAAAAGAAATG [GTGCAC_negctrl_site701]” as the sequence, how does the “gcPBM binding intensity (ln)” value read?
A: 9.41

Q: How did the “gcPBM binding intensity (ln)” value turn out when “AAATTGAATTAGTTAACACACAACTTTTATTTCATA [CACACA_site2840]” was run?
A: 9.36

Q: For “GTTATATGTTATATATATATATATATATATATATAT [TGCATGCA_negctrl_site428]”, which “gcPBM binding intensity (ln)” value is on record?
A: 8.91

Q: With “AAATTAATAAGTCACACACACATATATAATATATAT [CACACA_site799]” as the sequence, how does the “gcPBM binding intensity (ln)” value read?
A: 10.1

Q: With “AATATATACATTTATATACACACCTATATATATATA [CACACA_site1972]” as the sequence, how does the “gcPBM binding intensity (ln)” value read?
A: 9.45

Q: “AGCATCATTTTACACACATGCAAATGTAAAATAGGA [TGCATGCA_site460]” was tested. Which “gcPBM binding intensity (ln)” value did it give?
A: 9.43

Q: How did the “gcPBM binding intensity (ln)” value turn out when “TTATATATAATATATACACACACATGTATATATAAA [CACACA_site8603]” was run?
A: 9.45

Q: With “ATTACATACGAGCACACGTAAAAGTATAATATAAAA [GTGCAC_negctrl_site446]” as the sequence, how does the “gcPBM binding intensity (ln)” value read?
A: 9.27

Q: With “TTTGTATTGTGCAGATGTACATTATAATATTGGATT [XGTACX_site5033]” as the sequence, how does the “gcPBM binding intensity (ln)” value read?
A: 9.21

Q: With “TATGTTCCATTTTTTGGTACACATACAATAACTGCT [XGTACX_site2256]” as the sequence, how does the “gcPBM binding intensity (ln)” value read?
A: 9.11

Q: How did the “gcPBM binding intensity (ln)” value turn out when “AACAAATACAAAGAATAGTCATCTGAATGGTGTTAT [GTGCAC_negctrl_site685]” was run?
A: 9.53

Q: For “AAAAAAAAAAAAAGTACACACATACCTATAAATATA [CACACA_site6937]”, which “gcPBM binding intensity (ln)” value is on record?
A: 9.8

Q: How did the “gcPBM binding intensity (ln)” value turn out when TTTACCTCTTCAATGGTGCAATAACTCAAAAATTTG was run?
A: 8.97

Q: With “TTTTTATTTTATTAGTGTACTTTATATTTAACAATA [XGTACX_site1175]” as the sequence, how does the “gcPBM binding intensity (ln)” value read?
A: 9.36

Q: With “ATAAATAAAATAAAAGCACACAAAATGTAAATAATT [CACACA_site8895]” as the sequence, how does the “gcPBM binding intensity (ln)” value read?
A: 9.84

Q: For “TATATATTTATAAATGAACACACACCCAATTTGAAT [CACACA_site9113]”, which “gcPBM binding intensity (ln)” value is on record?
A: 9.85

Q: Which “gcPBM binding intensity (ln)” value does the source give for “TTTATATACATTTTAAATTTTAATGTAACCCATGGG [TGCATGCA_negctrl_site115]” here?
A: 8.75

Q: For “TTTATTTTTATAAGAGCATGCACTGTTTAAAATGGT [TGCATGCA_site628]”, which “gcPBM binding intensity (ln)” value is on record?
A: 8.98

Q: Which “gcPBM binding intensity (ln)” value does the source give for “TATATACCTATATACACACACATATATAAATAAATA [CACACA_site7341]” here?
A: 9.86
